T1: human GPR20 (Homo sapiens, UniProt Q99678)
T1 construct: expressed in transfected cells; host or cells: 293T cells, transient, Lipofectamine 2000
T1 sequence (Q99678 1-358): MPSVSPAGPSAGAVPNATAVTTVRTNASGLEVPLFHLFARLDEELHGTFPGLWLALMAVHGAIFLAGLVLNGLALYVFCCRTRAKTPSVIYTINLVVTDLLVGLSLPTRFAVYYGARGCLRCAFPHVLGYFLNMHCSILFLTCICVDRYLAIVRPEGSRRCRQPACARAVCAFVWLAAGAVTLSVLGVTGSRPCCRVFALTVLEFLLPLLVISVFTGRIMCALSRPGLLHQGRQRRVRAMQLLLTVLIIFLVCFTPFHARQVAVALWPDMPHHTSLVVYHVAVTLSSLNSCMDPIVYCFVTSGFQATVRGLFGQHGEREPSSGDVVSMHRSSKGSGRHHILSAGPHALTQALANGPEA


How the values were obtained:
human GPR20 [1] = target: T1, human GPR20; test: Binding activity of humanized anti-GPR20 antibodies and antibody-drug conjugates by flow cytometry; conditions: 293T cells transfected with pcDNA3.1-hGPR20; FIG. 25
human GPR20 [2] = target: T1, human GPR20; test: Internalization activity of humanized anti-GPR20 antibodies with Hum-ZAP in HEK293 cells stably expressing GPR20-EGFP; format: cell-based; conditions: antibody 0.015 to 1.27 μg/mL, Hum-ZAP 1 μg/mL, 4 days
GIST-T1/GPR20 cells = test: Antitumor effect in subcutaneously GIST-T1/GPR20 cell-transplanted nude mouse models; format: in vivo, BALB/c nude mice
[3] = 1 mg/kg intravenously on Day 17, FIG. 31

Molecule	cell proliferation-suppressive effect by antibody internalization (human GPR20 [2])	tumor volume (GIST-T1/GPR20 cells; [3])	other results
h046-H4b/L7: humanized h046-H4b type heavy chain and humanized h046-L7 type light chain (antibody) heavy: QVQLVQSGAEVKKPGASVKVSCKASGYTFTSYYISWIRQAPGQGLKYMGFINPGSGHTNYNEKFKGRVTITADKSSSTATMELSSLRSEDTAVYYCARGAGGFLRIITKFDYWGQGTLVTVSSASTKGPSVFPLAPSSKSTSGGTAALGCLVKDYFPEPVTVSWNSGALTSGVHTFPAVLQSSGLYSLSSVVTVPSSSLGTQTYICNVNHKPSNTKVDKRV[letters of human IgG1 Fc omitted] light: DTQLTQSPSSLSASVGDRVTITCRASKSVSTYIHWYQQKPGKQPKLLIYSAGNLESGVPSRFSGSGSGTDFTLTISSLQPEDFANYYCQQINELPYTFGQGTKVEIKRTVAAPSVFIFPPSDEQLKSGTASVVCLLNNFYPREAKVQWKVDNALQSGNSQESVTEQDSKDSTYSLSSTLTLSKADYEKHKVYACEVTHQGLSSPVTKSFNRGEC	exhibited a cell proliferation-suppressive effect by antibody internalization	–	amount of the antibody bound based on MFI (human GPR20 [1]): increased in a concentration-dependent manner
h046-H5b/L2: humanized h046-H5b type heavy chain and humanized h046-L2 type light chain (antibody) heavy: QVQLVQSGAEVKKPGASVKVSCKASGYTFTSYYISWIRQAPGQGLKYMGFINPGSGHTNYNEKFKGRVTITADKSSSTANMELSSLRSEDTAVYYCARGAGGFLRIITKFDYWGQGTLVTVSSASTKGPSVFPLAPSSKSTSGGTAALGCLVKDYFPEPVTVSWNSGALTSGVHTFPAVLQSSGLYSLSSVVTVPSSSLGTQTYICNVNHKPSNTKVDKRV[letters of human IgG1 Fc omitted] light: DIQMTQSPSSLSASVGDRVTITCRASKSVSTYIHWYQQKPGKQPKLLIYSASNLESGVPSRFSGSGSGTDFTLTISSLQPEDFATYYCQQINELPYTFGQGTKVEIKRTVAAPSVFIFPPSDEQLKSGTASVVCLLNNFYPREAKVQWKVDNALQSGNSQESVTEQDSKDSTYSLSSTLTLSKADYEKHKVYACEVTHQGLSSPVTKSFNRGEC	exhibited a cell proliferation-suppressive effect by antibody internalization	–	–
h046-Hwt/L6: human chimeric c046 heavy chain and humanized h046-L6 type light chain (antibody) heavy: QVQLQQSGAELAKPGSSVKISCKASGYTFTSYYISWIKQTTGQGLKYIGFINPGSGHTNYNEKFKGKATLTVDKSSSTAFMQLSSLTPDDSAIYYCARGAGGFLRIITKFDYWGQGVMVTVSSASTKGPSVFPLAPSSKSTSGGTAALGCLVKDYFPEPVTVSWNSGALTSGVHTFPAVLQSSGLYSLSSVVTVPSSSLGTQTYICNVNHKPSNTKVDKRV[letters of human IgG1 Fc omitted] light: DTQLTQSPSSLSASVGDRVTITCRASKSVSTYIHWYQQKPGKQPKLLIYSASDRESGVPSRFSGSGSGTDFTLTISSLQPEDFANYYCQQINELPYTFGQGTKVEIKRTVAAPSVFIFPPSDEQLKSGTASVVCLLNNFYPREAKVQWKVDNALQSGNSQESVTEQDSKDSTYSLSSTLTLSKADYEKHKVYACEVTHQGLSSPVTKSFNRGEC	exhibited a cell proliferation-suppressive effect by antibody internalization	–	–
h046-H10/L6: humanized h046-H10 type heavy chain and humanized h046-L6 type light chain (antibody) heavy: QVQLQQSGAELAKPGSSVKVSCKASGYTFTSYYISWIKQTTGQGLKYIGFINPGSGHTNYNEKFKGKATLTVDKSSSTANMQLSSLTPDDSAIYYCARGAGGFLRIITKFDYWGQGVMVTVSSASTKGPSVFPLAPSSKSTSGGTAALGCLVKDYFPEPVTVSWNSGALTSGVHTFPAVLQSSGLYSLSSVVTVPSSSLGTQTYICNVNHKPSNTKVDKRV[letters of human IgG1 Fc omitted] light: DTQLTQSPSSLSASVGDRVTITCRASKSVSTYIHWYQQKPGKQPKLLIYSASDRESGVPSRFSGSGSGTDFTLTISSLQPEDFANYYCQQINELPYTFGQGTKVEIKRTVAAPSVFIFPPSDEQLKSGTASVVCLLNNFYPREAKVQWKVDNALQSGNSQESVTEQDSKDSTYSLSSTLTLSKADYEKHKVYACEVTHQGLSSPVTKSFNRGEC	exhibited a cell proliferation-suppressive effect by antibody internalization	–	–
h046-H4e/L7: humanized h046-H4e type heavy chain and humanized h046-L7 type light chain (antibody) heavy: EVQLVQSGAEVKKPGASVKVSCKASGYTFTSYYISWIRQAPGQGLKYMGFINPGSGHTNYNEKFKGRVTITADKSSSTATMELSSLRSEDTAVYYCARGAGGFLRIITKFDYWGQGTLVTVSSASTKGPSVFPLAPSSKSTSGGTAALGCLVKDYFPEPVTVSWNSGALTSGVHTFPAVLQSSGLYSLSSVVTVPSSSLGTQTYICNVNHKPSNTKVDKRV[letters of human IgG1 Fc omitted] light: DTQLTQSPSSLSASVGDRVTITCRASKSVSTYIHWYQQKPGKQPKLLIYSAGNLESGVPSRFSGSGSGTDFTLTISSLQPEDFANYYCQQINELPYTFGQGTKVEIKRTVAAPSVFIFPPSDEQLKSGTASVVCLLNNFYPREAKVQWKVDNALQSGNSQESVTEQDSKDSTYSLSSTLTLSKADYEKHKVYACEVTHQGLSSPVTKSFNRGEC	–	–	amount of the antibody bound based on MFI (human GPR20 [1]): increased in a concentration-dependent manner
antibody-drug conjugate (6): antibody-drug conjugate produced from h046-Hwt/L6; n 7.8 by common procedure F (conjugate) heavy: QVQLQQSGAELAKPGSSVKISCKASGYTFTSYYISWIKQTTGQGLKYIGFINPGSGHTNYNEKFKGKATLTVDKSSSTAFMQLSSLTPDDSAIYYCARGAGGFLRIITKFDYWGQGVMVTVSSASTKGPSVFPLAPSSKSTSGGTAALGCLVKDYFPEPVTVSWNSGALTSGVHTFPAVLQSSGLYSLSSVVTVPSSSLGTQTYICNVNHKPSNTKVDKRV[letters of human IgG1 Fc omitted] light: DTQLTQSPSSLSASVGDRVTITCRASKSVSTYIHWYQQKPGKQPKLLIYSASDRESGVPSRFSGSGSGTDFTLTISSLQPEDFANYYCQQINELPYTFGQGTKVEIKRTVAAPSVFIFPPSDEQLKSGTASVVCLLNNFYPREAKVQWKVDNALQSGNSQESVTEQDSKDSTYSLSSTLTLSKADYEKHKVYACEVTHQGLSSPVTKSFNRGEC	–	remarkably decreased tumor volume	tumor volume (GIST-T1/GPR20 cells; 10 mg/kg intravenously on Day 24, FIG. 30): remarkably decreased tumor volume
antibody-drug conjugate (3): antibody-drug conjugate produced from h046-H4b/L7; n 7.8 by common procedure F (conjugate) heavy: QVQLVQSGAEVKKPGASVKVSCKASGYTFTSYYISWIRQAPGQGLKYMGFINPGSGHTNYNEKFKGRVTITADKSSSTATMELSSLRSEDTAVYYCARGAGGFLRIITKFDYWGQGTLVTVSSASTKGPSVFPLAPSSKSTSGGTAALGCLVKDYFPEPVTVSWNSGALTSGVHTFPAVLQSSGLYSLSSVVTVPSSSLGTQTYICNVNHKPSNTKVDKRV[letters of human IgG1 Fc omitted] light: DTQLTQSPSSLSASVGDRVTITCRASKSVSTYIHWYQQKPGKQPKLLIYSAGNLESGVPSRFSGSGSGTDFTLTISSLQPEDFANYYCQQINELPYTFGQGTKVEIKRTVAAPSVFIFPPSDEQLKSGTASVVCLLNNFYPREAKVQWKVDNALQSGNSQESVTEQDSKDSTYSLSSTLTLSKADYEKHKVYACEVTHQGLSSPVTKSFNRGEC	–	remarkably decreased tumor volume	–
antibody-drug conjugate (5): antibody-drug conjugate produced from h046-H5b/L2; n 7.9 by common procedure F (conjugate) heavy: QVQLVQSGAEVKKPGASVKVSCKASGYTFTSYYISWIRQAPGQGLKYMGFINPGSGHTNYNEKFKGRVTITADKSSSTANMELSSLRSEDTAVYYCARGAGGFLRIITKFDYWGQGTLVTVSSASTKGPSVFPLAPSSKSTSGGTAALGCLVKDYFPEPVTVSWNSGALTSGVHTFPAVLQSSGLYSLSSVVTVPSSSLGTQTYICNVNHKPSNTKVDKRV[letters of human IgG1 Fc omitted] light: DIQMTQSPSSLSASVGDRVTITCRASKSVSTYIHWYQQKPGKQPKLLIYSASNLESGVPSRFSGSGSGTDFTLTISSLQPEDFATYYCQQINELPYTFGQGTKVEIKRTVAAPSVFIFPPSDEQLKSGTASVVCLLNNFYPREAKVQWKVDNALQSGNSQESVTEQDSKDSTYSLSSTLTLSKADYEKHKVYACEVTHQGLSSPVTKSFNRGEC	–	remarkably decreased tumor volume	–
antibody-drug conjugate (12): antibody-drug conjugate produced from h046-H10/L6; n 8.0 by common procedure F (conjugate) heavy: QVQLQQSGAELAKPGSSVKVSCKASGYTFTSYYISWIKQTTGQGLKYIGFINPGSGHTNYNEKFKGKATLTVDKSSSTANMQLSSLTPDDSAIYYCARGAGGFLRIITKFDYWGQGVMVTVSSASTKGPSVFPLAPSSKSTSGGTAALGCLVKDYFPEPVTVSWNSGALTSGVHTFPAVLQSSGLYSLSSVVTVPSSSLGTQTYICNVNHKPSNTKVDKRV[letters of human IgG1 Fc omitted] light: DTQLTQSPSSLSASVGDRVTITCRASKSVSTYIHWYQQKPGKQPKLLIYSASDRESGVPSRFSGSGSGTDFTLTISSLQPEDFANYYCQQINELPYTFGQGTKVEIKRTVAAPSVFIFPPSDEQLKSGTASVVCLLNNFYPREAKVQWKVDNALQSGNSQESVTEQDSKDSTYSLSSTLTLSKADYEKHKVYACEVTHQGLSSPVTKSFNRGEC	–	remarkably decreased tumor volume	–

From patent US11434289B2, “Anti-GPR20 antibody and anti-GPR20 antibody-drug conjugate” (DAIICHI SANKYO COMPANY, LIMITED, priority 2017, dated 2022)
